Experimental data as given in paper PMC6919601, “Identification of Plasmodium dipeptidyl aminopeptidase allosteric inhibitors by high throughput screening” (PLoS ONE, 2019).
Hit rate of the full screen: of about 110,000 compounds, about 230 (0.21%) showed an effect of 50% or more. The list shows a part of the results.

Each compound was assayed against DPAP1 (Plasmodium falciparum, UniProt Q8IIJ9) (assay: primary screen, percent inhibition; read by cleavage of a fluorogenic dipeptide substrate; higher = more effect of the substance).
DPAP1, sequence (Q8IIJ9 whole entry, looked up): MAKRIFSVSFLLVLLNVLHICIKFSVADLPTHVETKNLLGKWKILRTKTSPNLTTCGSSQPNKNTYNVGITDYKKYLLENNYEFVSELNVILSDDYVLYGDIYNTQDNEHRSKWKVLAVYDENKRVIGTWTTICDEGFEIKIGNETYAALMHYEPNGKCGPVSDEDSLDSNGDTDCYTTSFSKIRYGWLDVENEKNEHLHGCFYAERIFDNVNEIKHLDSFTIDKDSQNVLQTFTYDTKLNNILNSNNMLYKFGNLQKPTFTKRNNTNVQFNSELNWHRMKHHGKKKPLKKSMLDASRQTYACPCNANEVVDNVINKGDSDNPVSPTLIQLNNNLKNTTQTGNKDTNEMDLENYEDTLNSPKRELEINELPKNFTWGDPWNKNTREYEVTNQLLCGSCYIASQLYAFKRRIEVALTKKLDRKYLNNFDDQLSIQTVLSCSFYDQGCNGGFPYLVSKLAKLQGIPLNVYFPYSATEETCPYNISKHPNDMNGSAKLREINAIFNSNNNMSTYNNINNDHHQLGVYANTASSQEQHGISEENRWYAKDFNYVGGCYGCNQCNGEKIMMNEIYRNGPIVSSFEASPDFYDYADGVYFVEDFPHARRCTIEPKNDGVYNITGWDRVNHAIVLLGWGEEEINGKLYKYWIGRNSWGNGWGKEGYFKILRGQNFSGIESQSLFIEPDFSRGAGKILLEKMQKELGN
Set-up: species or system P. falciparum D10 trophozoite lysates; single well
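Further: 30 min substrate incubation versus DMSO and 10 µM JCP410 controls.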

SMILES	% Inhibition @ 10 uM [%]
c1ccc(C2=NC(c3ccccc3)N=C(c3ccccc3)N2)cc1	-7.01
O=S(=O)(c1cccc(C(F)(F)F)c1)N(CCCN1CCOCC1)Cc1cccs1	5.03
NC(=O)c1c(NC(=O)C2c3ccccc3Oc3ccccc32)sc2c1CCCC2	-4.68
Cc1cc(C(=O)NCC(C)c2ccccc2)c2c(C)nn(-c3ccccc3Cl)c2n1 (stereo not drawn)	5.32
Cc1cc(C)cc(NC(=O)C2CC(=O)N=C(N)S2)c1 (stereo not drawn)	-1.98
CCOC(=O)c1c(C)[nH]c(C)c1S(=O)(=O)Nc1cccnc1	3.93
Cc1cccc(-c2nc(CSCC(=O)NCCCN3CCOCC3)c(C)o2)c1	0.475
Cc1ccc(-n2c(CNCc3ccc(F)cc3)nc3ccccc3c2=O)cc1	-4.72
CC(=O)c1nc(N2C(=O)CC(Cc3cc(C)cc(C)c3)C2=O)sc1C (stereo not drawn)	5.3
Cc1ccc2onc(CNC(=O)NCc3ccc4c(c3)OCO4)c2c1	3.25
CO/C(O)=C1/C(C)=Nc2ncnn2C1c1ccc(C)o1 (stereo not drawn)	-2.9
Cc1c(CO)c2ccccc2n1Cc1ccc(Cl)cc1	6.78
CCCn1c(NCc2nc3ccccc3n2C)nc2ccccc21	-2.87
Cc1cc2c(cc3c(SCc4nc(-c5ccccc5)oc4C)nncn32)o1	0.335
CCCCCCNc1cc(C)oc(=O)c1C(C)=O	4.57
Cn1c(=O)c(SC2CCCCC2)c(O)c2ccccc21	-1.24
Cc1ccc(C)c(C(=O)N2CCC(c3nc(O)c4nnn(Cc5ccc(F)cc5F)c4n3)CC2)c1	14
O=C(NCCc1ccccc1)C1c2ccccc2C(=O)N1Cc1cccs1 (stereo not drawn)	2.35
c1ccc(CN2CCC(N3CCN(Cc4ccncc4)CC3)CC2)cc1	-9.2
CC(=O)N(c1ccccc1)C1CC(C)N(C(=O)C(C)C)c2ccccc21 (stereo not drawn)	0.331
COc1ccc(Br)cc1C1C2=C(CCCC2=O)N(CC(=O)O)C2=C1C(=O)CCC2	1.89
Cn1c(=O)c2ccccc2n2c(CCC(=O)N3CCC(Cc4ccccc4)CC3)nnc12	4.16
C=CCNC(=O)CCCCn1c(=S)[nH]c2c([nH]c3ccc(OC)cc32)c1=O	1.15
COCCNC(=O)c1ccc(-c2nc(CS(=O)c3ccccc3)c(C)o2)cc1 (stereo not drawn)	4.12
COc1ccc(NC(=S)NC(=O)c2ccco2)cc1	4.63

SMILES	% Inhibition @ 10 uM [%]
Cc1ccc(C)c(S(=O)(=O)NC(=O)Cc2cccc3ccccc23)c1	4.22
CCOC(=O)N1CCN(c2c(NCC3CCN(Cc4cccc(C)c4)CC3)c(=O)c2=O)CC1	-1.44
Cc1cc2c(c(=O)o1)C(c1ccc(Br)s1)C(C#N)=C(N)O2 (stereo not drawn)	-3.77
Cc1ccc(CS(=O)(=O)CCC(=O)N[C@@H](CCc2ccccc2)C(=O)c2nc3ccccc3o2)cc1	-6.98
CCCCN(CC)CCNC(=O)Cn1ncc2c3ccccc3nc-2c1O	1.43
COc1ccc(OC)c(NC(=O)COc2ccccc2)c1	3.8
CCCCN1C(=O)C2Cc3c([nH]c4ccccc34)C(c3cccc(F)c3)N2C1=O (stereo not drawn)	-0.0372
CCOC(=O)c1c(NC(=O)Nc2nnc(N3CCCCC3C)s2)sc2c1CCCC2 (stereo not drawn)	-4.68
CCOc1ccc(CNC(=O)C2=C(C)C(=O)OC23CCN(C(C)=O)CC3)cc1	-6.13
O=C(NCCCCc1ccccc1)c1cccc(Br)c1	-1.48
CC(C)Oc1ccc(C(=O)Nc2ccc(N3CCN(C(=O)c4ccccc4)CC3)cc2)cc1	-2.74
CC1(C)Cc2c(sc3ncn4nc(-c5ccncc5)nc4c23)C(C)(C)N1	0.392
COC(=O)c1sccc1NC(=O)c1ccc2c(Cl)c3c(nc2c1)CCCC3	-0.352
O=C(NCC1COc2ccccc2O1)C(NS(=O)(=O)c1cccc2nsnc12)c1ccccc1 (stereo not drawn)	-1.43
CC1(C)CC(NS(=O)(=O)c2ccc(F)cc2)CC(C)(C)N1	-10.1
CCOC(=O)C1=C(O)/C(=C\c2ccc(-c3cc(Cl)cc(Cl)c3)o2)N=C1C	-6.44
O=C(O)c1ccccc1C(=O)Nc1ccccc1C#Cc1ccc(Br)cc1	4.16
CCC(C)c1ccc(NC(=O)c2ccc(OC)c(OC)c2)cc1 (stereo not drawn)	-2.82
CN1CCN(c2ccc([N+](=O)[O-])c3cccnc23)CC1	2.5
CC(=O)c1ccc(N2CCN(CCC3=C(C)CCCC3(C)C)CC2)cc1	3.15
O=C(OC1CS(=O)(=O)CC1N(Cc1ccccc1)C(=O)Oc1ccccc1)c1ccccc1 (stereo not drawn)	-0.274
O=C(O)c1cc(O)nc(O)c1	2.62
COc1ccc(/C=C2\SC(Nc3ccc(F)cc3)=NC2=O)c(OC)c1OC	0.931
COC(=O)[C@@]1(C)CC[C@]2(C)CC[C@]3(C)C(=CC(=O)C4[C@@]5(C)CCC(O)C(C)(C)C5CC[C@]43C)C2C1 (stereo partly drawn)	0.51
Clc1ccc(N2CCN(Cc3cccc(Cl)c3)CC2)cc1	1.48

SMILES	% Inhibition @ 10 uM [%]
O=C(c1cc2ncc(Br)cn2n1)N1CCCCC1	-5.11
COc1ccccc1CN1CCN(Cc2ccccc2Cl)CC1	-2.32
CCCOc1ccc(N2CC(C(=O)Nc3ccc(Br)cc3C)CC2=O)cc1 (stereo not drawn)	2.53
COC(=O)C1=NNC2C(=O)N(c3ccc(OC)cc3)C(=O)C12 (stereo not drawn)	1.54
CC1(C)C(c2ccccc2)=NC(c2ccc(F)cc2)N1O (stereo not drawn)	-1.4
CC12CN(Cc3ccccc3)CC(C)(CN(Cc3ccccc3Br)C1)C2	-4.03
Cc1c(C#N)sc2nc(-c3ccccc3)nc(/N=C/N(C)C)c12	-0.597
Nc1nc(-c2ccccc2)nn1S(=O)(=O)c1ccccc1	1.25
COc1ccc(Cl)cc1/C=C1\SC(=S)NC1=O	0.392
CC(C)c1c(O)cc(-c2cccnc2)n(-c2ccccc2)c1=O	3.05
CCOC(=O)/C(=C\C=C\N1CCOCC1)C(C)=O	7.24
c1ccc2c(c1)CN(CCN1CCCC1)C2	0.722
Cc1sc(NC(=O)CCC(=O)O)nc1-c1ccc(F)cc1	0.727
Cc1cc(C)c2c(C)c(C(=O)N(Cc3sccc3C)C3CCS(=O)(=O)C3)oc2c1 (stereo not drawn)	0.569
COCCCNc1nc2c(-c3ccc(Cl)cc3)nnn2c2ccccc12	-2.92
Cn1c(=O)c2nc3ccc(N)cc3nc2n(C)c1=O	-0.807
O=C1NC2(CCN(C(=O)c3cccc(Cl)c3)CC2)N=C1c1ccccc1	1.76
O=C(O)CSC(=S)N1CCCCC1	-3.72
CC(C)(C)SCCNC(=O)CN(c1cccc(Br)c1)S(C)(=O)=O	-1.11
CN(CCCNC(=O)C1c2ccccc2C(=O)N(C)C1c1cccs1)Cc1ccccc1 (stereo not drawn)	-6.05
O=C(NC1CCCc2ccccc21)c1cc(-c2ccc(F)cc2)n[nH]1 (stereo not drawn)	2.11
CC(C)OCCCNC(=O)CN1N=C(c2ccc(Cl)cc2)CCC1=O	3.59
O=C(Cc1ccccc1)N1CCN(Cc2ccccc2)CC1	-4.3
CCN1CCCC1CNC(=O)Cn1ncc2c(C)n(Cc3ccc(F)cc3)c(C)c2c1=O (stereo not drawn)	-5.81
Cc1cc(C)c2c(NC(=O)c3ccccc3Cl)c(C(=O)NCc3ccco3)sc2n1	-3.34

SMILES	% Inhibition @ 10 uM [%]
CC(C)(C)c1[nH]nc2c1C(c1cc(Br)ccc1F)C(C#N)=C(N)O2 (stereo not drawn)	-0.661
CC(NC(=O)c1ccc(Br)cc1)C1COc2ccccc2O1 (stereo not drawn)	3.24
O=C(Cn1ncn2cccc2c1=O)N1CCC2(CC1)OCCO2	-0.542
COc1ccc(-c2c(C)nn3c(O)c4c(nc23)CCCC4)cc1	-0.267
Cc1ccc2c(c1)-c1ccccc1C2=O	1.76
OCC1CCCN1Cc1cccc(Cl)c1Cl (stereo not drawn)	-4.75
C#CCn1cc(/C=C2/NC(=O)N(CC(=O)Nc3cccc(C)c3)C2=O)c2ccccc21	-12.3
Cc1ccc(Cc2nnc(C(=O)NCCC(C)C)o2)cc1	-1.68
COc1cc(/C=C2\Sc3ccccc3C2=O)ccc1OCC#N	-4.67
Cc1occc1C(=O)N1CCN(c2ccccc2)CC1	-0.171
COC(=O)c1c(NC(=O)c2c(-c3ccccc3Cl)noc2C)sc2c1CCCC2	11.8
O=c1c2ccccc2n2c(-c3ccc(Cl)cc3)nnc2n1Cc1ccccc1	1.68
CCC(C)NC(=O)C1CCCN(S(=O)(=O)c2ccc3[nH]c(-c4ccccc4)nc3c2)C1 (stereo not drawn)	0.589
O=C(Cn1ncc2ccc(Cl)cc21)NCc1cccs1	3.84
O=c1c2ccccc2nc2n1CCN2Cc1ccc(Cl)cc1	4.69
O=C(NCc1cccnc1)c1ccc(Cn2c(SCc3ccccc3F)nc3ccncc32)cc1	-1.92
O=C(Nc1ccc(Cl)cc1C(=O)NCC1CCCO1)c1ccc(Cl)cc1Cl (stereo not drawn)	-3.09
CC(Oc1ccc(C(=O)Nc2ccc(F)cc2)cc1)C(=O)O (stereo not drawn)	-1.6
C=Cc1ccc(Cn2c(C(=O)O)c(CNCc3ccccc3F)c3ccc(C)cc32)cc1	10.2
COc1cc(C2C(C#N)=C(N)Oc3[nH]nc(C)c32)ccc1OCc1ccc(Cl)cc1 (stereo not drawn)	-0.105
COc1cccc(-c2noc(-c3ccc4c(c3)OCO4)n2)c1	4.18
CCCCc1nc(N)c(C#N)c(-c2ccccc2)c1CCC	97.8
OC1CCN(Cc2ccc(Cl)cc2)CC1	-5.41
O=C(NCc1ccccc1)c1cnn2c(C(F)(F)F)cc(-c3ccc(Br)cc3)nc12	2.32
